Assay results: publication PMC12820563, “FoxP3 forms a head-to-head dimer in vivo and stabilizes its multimerization on adjacent microsatellites”
The other results are listed elsewhere or left out.

target: T1, MBP-FoxP1dN (Mus musculus, UniProt P58462 326-579); assay: PD-seq (MBP pull-down with sequencing); 20 mM Tris-HCl pH 7.5, 100 mM NaCl, 1.5 mM MgCl2, 0.4 uM protein, 0.1 uM dsDNA library, 30 min, room temperature, amylose pull-down; high values mean tight binding; conditions: protein: recombinant; tags: His6-MBP; chain copies: 2; dsDNA, one strand shown
T1 sequence: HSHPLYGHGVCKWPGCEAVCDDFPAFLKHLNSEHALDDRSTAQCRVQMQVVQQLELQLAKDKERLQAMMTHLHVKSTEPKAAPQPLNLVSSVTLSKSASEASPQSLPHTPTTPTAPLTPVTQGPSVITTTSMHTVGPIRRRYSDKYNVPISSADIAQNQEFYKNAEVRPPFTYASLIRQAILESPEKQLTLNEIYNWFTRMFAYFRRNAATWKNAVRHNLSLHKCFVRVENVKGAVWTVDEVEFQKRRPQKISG
How it was run: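 The N-terminus-lacking fragment of mouse FoxP3 or FoxP1 carried a His6-MBP tag and was expressed in E. coli. At 0.4 µM it was incubated with 0.1 µM Klenow-filled degenerate double-stranded DNA library for 30 min at room temperature in Tris pH 7.5 buffer with NaCl and MgCl2, and complexes were caught on amylose resin, washed three times, released with proteinase K, PCR-barcoded and Illumina-sequenced. Binding is reads-per-million enrichment of pull-down over input with replicates pooled.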

Sequence	binding signal
GATGATTGTTCTCCCAGCTGATGAATTACCGTATTCGAGTAAACAAATTTTCCTAATCTTTCTGTTCAAGCGCCATCTAC	1.11 RPM ratio (pull-down/input)
GATGATTGTTCTCCCAGCTGATGAATTACCAAAATCGAGTAAACAAATTTTCCTAATCTTTCTGTTCAAGCGCCATCTAC	1.3 RPM ratio (pull-down/input)
GATGATTGTTCTCCCAGCTGATGAATTTTTTAGTTCGAGTAAACAAATTTTCCTAATCTTTCTGTTCAAGCGCCATCTAC	1.1 RPM ratio (pull-down/input)
GATGATTGTTCTCCCAGCTGATGAATTAGCGTCATCGAGTAAACAAATTTTCCTAATCTTTCTGTTCAAGCGCCATCTAC	1.17 RPM ratio (pull-down/input)
GATGATTGTTCTCCCAGCTGATGAATTTGAGGATTCGAGTAAACAAATTTTCCTAATCTTTCTGTTCAAGCGCCATCTAC	0.846 RPM ratio (pull-down/input)
GATGATTGTTCTCCCAGCTGATGAATTTAGCGTCTCGAGTAAACAAATTTTCCTAATCTTTCTGTTCAAGCGCCATCTAC	0.926 RPM ratio (pull-down/input)
GATGATTGTTCTCCCAGCTGATGAATTGCTCCCATCGAGTAAACAAATTTTCCTAATCTTTCTGTTCAAGCGCCATCTAC	1.05 RPM ratio (pull-down/input)
GATGATTGTTCTCCCAGCTGATGAATTAATTCCATCGAGTAAACAAATTTTCCTAATCTTTCTGTTCAAGCGCCATCTAC	0.978 RPM ratio (pull-down/input)
GATGATTGTTCTCCCAGCTGATGAATTAGGTTCCTCGAGTAAACAAATTTTCCTAATCTTTCTGTTCAAGCGCCATCTAC	0.845 RPM ratio (pull-down/input)
GATGATTGTTCTCCCAGCTGATGAATTAAAACTGTCGAGTAAACAAATTTTCCTAATCTTTCTGTTCAAGCGCCATCTAC	0.933 RPM ratio (pull-down/input)
GATGATTGTTCTCCCAGCTGATGAATTAAGATAATCGAGTAAACAAATTTTCCTAATCTTTCTGTTCAAGCGCCATCTAC	1.34 RPM ratio (pull-down/input)
GATGATTGTTCTCCCAGCTGATGAATTGTGCCAATCGAGTAAACAAATTTTCCTAATCTTTCTGTTCAAGCGCCATCTAC	1.11 RPM ratio (pull-down/input)
GATGATTGTTCTCCCAGCTGATGAATTAATGTGGTCGAGTAAACAAATTTTCCTAATCTTTCTGTTCAAGCGCCATCTAC	1.09 RPM ratio (pull-down/input)
GATGATTGTTCTCCCAGCTGATGAATTTAAGTGGTCGAGTAAACAAATTTTCCTAATCTTTCTGTTCAAGCGCCATCTAC	0.934 RPM ratio (pull-down/input)
GATGATTGTTCTCCCAGCTGATGAATTGGCACCATCGAGTAAACAAATTTTCCTAATCTTTCTGTTCAAGCGCCATCTAC	0.925 RPM ratio (pull-down/input)
GATGATTGTTCTCCCAGCTGATGAATTGGAATCTTCGAGTAAACAAATTTTCCTAATCTTTCTGTTCAAGCGCCATCTAC	0.816 RPM ratio (pull-down/input)

Sequence	binding signal
GATGATTGTTCTCCCAGCTGATGAATTTTAGAACTCGAGTAAACAAATTTTCCTAATCTTTCTGTTCAAGCGCCATCTAC	0.818 RPM ratio (pull-down/input)
GATGATTGTTCTCCCAGCTGATGAATTTCGAGAATCGAGTAAACAAATTTTCCTAATCTTTCTGTTCAAGCGCCATCTAC	0.908 RPM ratio (pull-down/input)
GATGATTGTTCTCCCAGCTGATGAATTGCGAGTATCGAGTAAACAAATTTTCCTAATCTTTCTGTTCAAGCGCCATCTAC	1.1 RPM ratio (pull-down/input)
GATGATTGTTCTCCCAGCTGATGAATTTGACCAGTCGAGTAAACAAATTTTCCTAATCTTTCTGTTCAAGCGCCATCTAC	0.822 RPM ratio (pull-down/input)
GATGATTGTTCTCCCAGCTGATGAATTACAATGGTCGAGTAAACAAATTTTCCTAATCTTTCTGTTCAAGCGCCATCTAC	1.12 RPM ratio (pull-down/input)
GATGATTGTTCTCCCAGCTGATGAATTTGCTATGTCGAGTAAACAAATTTTCCTAATCTTTCTGTTCAAGCGCCATCTAC	1.06 RPM ratio (pull-down/input)
GATGATTGTTCTCCCAGCTGATGAATTAGCGCTCTCGAGTAAACAAATTTTCCTAATCTTTCTGTTCAAGCGCCATCTAC	0.849 RPM ratio (pull-down/input)
GATGATTGTTCTCCCAGCTGATGAATTTGCGCACTCGAGTAAACAAATTTTCCTAATCTTTCTGTTCAAGCGCCATCTAC	0.994 RPM ratio (pull-down/input)
GATGATTGTTCTCCCAGCTGATGAATTCATGCTCTCGAGTAAACAAATTTTCCTAATCTTTCTGTTCAAGCGCCATCTAC	0.888 RPM ratio (pull-down/input)
GATGATTGTTCTCCCAGCTGATGAATTTTAGCAATCGAGTAAACAAATTTTCCTAATCTTTCTGTTCAAGCGCCATCTAC	1.31 RPM ratio (pull-down/input)
GATGATTGTTCTCCCAGCTGATGAATTGGTCCCTTCGAGTAAACAAATTTTCCTAATCTTTCTGTTCAAGCGCCATCTAC	0.888 RPM ratio (pull-down/input)
GATGATTGTTCTCCCAGCTGATGAATTCCGATATTCGAGTAAACAAATTTTCCTAATCTTTCTGTTCAAGCGCCATCTAC	0.864 RPM ratio (pull-down/input)
GATGATTGTTCTCCCAGCTGATGAATTTTCAGTTTCGAGTAAACAAATTTTCCTAATCTTTCTGTTCAAGCGCCATCTAC	0.914 RPM ratio (pull-down/input)
GATGATTGTTCTCCCAGCTGATGAATTGGATTCCTCGAGTAAACAAATTTTCCTAATCTTTCTGTTCAAGCGCCATCTAC	0.727 RPM ratio (pull-down/input)
GATGATTGTTCTCCCAGCTGATGAATTTATTGAATCGAGTAAACAAATTTTCCTAATCTTTCTGTTCAAGCGCCATCTAC	1.28 RPM ratio (pull-down/input)
GATGATTGTTCTCCCAGCTGATGAATTTGTACATTCGAGTAAACAAATTTTCCTAATCTTTCTGTTCAAGCGCCATCTAC	1.23 RPM ratio (pull-down/input)
